# Reference: ChEMBL document CHEMBL5050857, “Mettl3 modulators” (2021)
# What was measured:
# [1] = target: T1, N6-adenosine-methyltransferase catalytic subunit (Homo sapiens, UniProt Q86U44); assay: Inhibition of METTL3 (unknown origin) using UCUGGACUAAA-biotin and 3H-SAM as substrates preincubated for 5 mins followed by substrate addition incubated for 30 mins by TopCount scintillation counting method
# [2] = target: T1, N6-adenosine-methyltransferase catalytic subunit; assay: Inhibition of METTL3-mediated m6A methylation in human MOLM-13 cells assessed as reduction in mRNA level measured after 24 hrs by LC-MS/MS analysis; type: cell-based
# [3] = Inhibition of METTL16 (unknown origin) using CGAUACAGAGAAGAUUAGCAUACGCAAAUUCGUGAAGCG-biotin and SAM as substrates preincubated for 5 mins followed by substrate addition incubated for 220 mins by TopCount scintillation counting method; design: species or system Homo sapiens
# [4] = test system: MOLM-13; assay: Antiproliferative activity against human MOLM-13 cells after 96 hrs by Cell Titer-Glo assay; type: functional, cell-based; conditions: MOLM-13, 96 h
# [5] = test system: MOLM-13; assay: Antiproliferative activity against human MOLM-13 cells after 48 hrs by Cell Titer-Glo assay; type: functional, cell-based; conditions: MOLM-13, 48 h
# T1 sequence (Q86U44 whole entry): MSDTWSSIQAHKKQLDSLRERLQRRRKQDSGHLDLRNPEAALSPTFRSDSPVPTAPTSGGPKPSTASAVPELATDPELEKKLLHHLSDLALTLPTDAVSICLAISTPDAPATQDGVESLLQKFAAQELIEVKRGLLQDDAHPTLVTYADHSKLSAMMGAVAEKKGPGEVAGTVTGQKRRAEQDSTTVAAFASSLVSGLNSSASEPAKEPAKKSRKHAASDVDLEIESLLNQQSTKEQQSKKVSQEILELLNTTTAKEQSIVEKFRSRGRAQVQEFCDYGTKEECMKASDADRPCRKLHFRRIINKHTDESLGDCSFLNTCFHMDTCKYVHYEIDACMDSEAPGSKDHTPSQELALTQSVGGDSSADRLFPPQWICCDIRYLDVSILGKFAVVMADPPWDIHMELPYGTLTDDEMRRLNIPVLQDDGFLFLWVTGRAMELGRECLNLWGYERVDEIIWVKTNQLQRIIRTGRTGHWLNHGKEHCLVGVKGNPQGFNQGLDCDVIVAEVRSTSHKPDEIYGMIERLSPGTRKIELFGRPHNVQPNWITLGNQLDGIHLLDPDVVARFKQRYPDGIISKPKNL
SMILES,IC50 [1],IC50 [3],IC50 [4],IC50 [2],IC50 [5]
Cc1cc(N)c2ccc(OC[C@H]3O[C@@H](n4cc(Br)c5c(N)ncnc54)C[C@@H]3O)cc2n1,≤ 1 µM,≥ 1 µM,≥ 10 µM,–,–
CNc1ccc2ccc(OC[C@H]3O[C@@H](n4cc(-c5ccnn5C)c5c(N)ncnc54)[C@@H](F)[C@@H]3O)cc2n1,≤ 0.1 µM,≥ 1 µM,–,–,–
CNc1ccc2ccc(OC[C@H]3O[C@@H](n4cc(C5=CCNC5)c5c(N)ncnc54)[C@@H](F)[C@@H]3O)cc2n1,≤ 0.1 µM,≥ 1 µM,–,–,–
CNc1ccc2ccc(OC[C@H]3O[C@@H](n4cc(-c5cnn(C)c5)c5c(N)ncnc54)[C@@H](F)[C@@H]3O)cc2n1,≤ 0.1 µM,≥ 1 µM,–,–,–
CNc1ccc2ccc(OC[C@H]3O[C@@H](n4cc(Br)c5c(N)nc(N)nc54)[C@@H](F)[C@@H]3O)cc2n1,≤ 1 µM,≥ 1 µM,–,–,–
CNc1ccc2cc(OC[C@H]3O[C@@H](n4cc(C)c5c(N)ncnc54)[C@H](O)[C@@H]3O)ccc2n1,≤ 0.1 µM,≥ 1 µM,–,–,–
CNc1ccc2ccc(OC[C@H]3O[C@@H](n4cc(-c5ccccn5)c5c(N)ncnc54)[C@@H](F)[C@@H]3O)cc2n1,< 0.01 µM,–,–,1 µM,–
Nc1cc(C2CC2)nc2cc(OC[C@H]3O[C@@H](n4cc(Br)c5c(N)ncnc54)[C@@H](F)[C@@H]3O)ccc12,≤ 0.1 µM,≥ 1 µM,–,–,–
CNc1ccc2ccc(OC[C@H]3O[C@@H](n4cc(-c5cccnc5)c5c(N)ncnc54)[C@@H](F)[C@@H]3O)cc2n1,≤ 0.1 µM,≥ 1 µM,–,–,–
Cn1ccc(-c2cn([C@@H]3O[C@H](COc4ccc5ccc(NC6CCC6)nc5c4)[C@@H](O)[C@@H]3F)c3ncnc(N)c23)n1,< 0.01 µM,–,< 1 µM,–,< 1 µM
CNc1ccc2ccc(OC[C@H]3O[C@@H](n4cc(-c5cc(F)cc(F)c5)c5c(N)ncnc54)[C@@H](F)[C@@H]3O)cc2n1,≤ 1 µM,≥ 1 µM,–,–,–
CCc1cc(N2CCOCC2)c2ccc(OC[C@H]3O[C@@H](n4cc(-c5ccn(C)n5)c5c(N)ncnc54)[C@@H](F)[C@@H]3O)cc2n1,< 0.01 µM,–,< 1 µM,–,1 µM
CCc1cc(N(C)CC2CC2)c2ccc(OC[C@H]3O[C@@H](n4cc(-c5ccn(C)n5)c5c(N)ncnc54)[C@@H](F)[C@@H]3O)cc2n1,< 0.01 µM,–,< 1 µM,–,1 µM
CCNc1ccc2ccc(OC[C@H]3O[C@@H](n4ccc5c(N)ncnc54)[C@H](O)[C@@H]3O)cc2n1,< 0.01 µM,≥ 1 µM,–,–,–
Nc1ncnc2c1c(-n1ccc(C(F)(F)F)n1)cn2[C@@H]1O[C@H](COc2ccc3ccc(N4CCC4)nc3c2)[C@@H](O)[C@@H]1F,< 0.01 µM,–,1 µM,–,1 µM
CNc1ccc2ccc(OC[C@H]3C[C@@H](n4cc(C5CCCC5)c5c(N)ncnc54)C[C@@H]3O)cc2n1,≤ 0.1 µM,≥ 1 µM,–,–,–
Nc1ncnc2c1ccn2[C@@H]1C[C@H](COc2ccc3ccc(N4CCCC4)nc3c2)[C@@H](O)[C@H]1O,≤ 1 µM,≥ 1 µM,–,–,–
CCc1cc(N(C)C2CC2)c2ccc(OC[C@H]3O[C@@H](n4cc(-c5ccn(C)n5)c5c(N)ncnc54)[C@@H](F)[C@@H]3O)cc2n1,< 0.01 µM,–,1 µM,–,1 µM
CNc1ccc2ccc(OC[C@H]3O[C@@H](n4ccc5c(N)nc(C(=O)OC)nc54)[C@@H](F)[C@@H]3O)cc2n1,≥ 1 µM,≥ 1 µM,–,–,–
Cn1ccc(-c2cn([C@@H]3C[C@H](COc4ccc5ccc(N6CCC6)nc5c4)[C@@H](O)C3)c3ncnc(N)c23)n1,< 0.01 µM,–,–,1 µM,–
Cn1ccc(-c2cn([C@@H]3O[C@H](COc4ccc5ccc(N6CCC6)nc5c4)[C@@H](O)[C@@H]3F)c3ncnc(N)c23)n1,–,≥ 1 µM,< 1 µM,–,< 1 µM
CNc1ccc2cnc(OC[C@H]3O[C@@H](n4cc(Br)c5c(N)ncnc54)[C@H](O)[C@@H]3O)nc2n1,≥ 1 µM,≥ 1 µM,≥ 10 µM,–,–

# Further lines, with some results ahead:
IC50 [1],IC50 [3],IC50 [4],SMILES,IC50 [2],IC50 [5]
< 0.01 µM,–,–,CNc1ccc2ccc(OC[C@H]3O[C@@H](n4ccc5c(N)ncnc54)[C@@H](F)[C@@H]3O)cc2n1,1 µM,–
≤ 1 µM,≥ 1 µM,–,CNc1ccc2ccc(OC[C@H]3O[C@@H](n4cc(Br)c5c(N)nccc54)[C@@H](F)[C@@H]3O)cc2n1,–,–
≤ 0.1 µM,≥ 1 µM,–,Nc1ccc2ccc(OC[C@H]3O[C@@H](n4cc(Br)c5c(N)ncnc54)[C@H](O)[C@@H]3O)cc2n1,–,–
≤ 0.1 µM,≥ 1 µM,–,Cc1cc(N)c2ccc(OC[C@H]3O[C@@H](n4cc(Br)c5c(N)ncnc54)[C@@H](F)[C@@H]3O)cc2n1,–,–
≤ 0.1 µM,≥ 1 µM,–,Nc1cc(N)c2ccc(OC[C@H]3O[C@@H](n4cc(C5CCCC5)c5c(N)ncnc54)[C@H](O)[C@@H]3O)cc2n1,–,–
≤ 0.1 µM,≥ 1 µM,–,CCNc1ccc2ccc(OC[C@H]3C[C@@H](n4ccc5c(N)ncnc54)[C@H](O)[C@@H]3O)cc2n1,–,–
≤ 1 µM,≥ 1 µM,–,Nc1nc2ccc(OC[C@H]3O[C@@H](n4cc(Br)c5c(N)ncnc54)[C@@H](F)[C@@H]3O)cc2[nH]1,–,–
≥ 1 µM,≥ 1 µM,–,Cn1ccnc1-c1ccc2ccc(OC[C@H]3O[C@@H](n4cc(Br)c5c(N)ncnc54)[C@@H](F)[C@@H]3O)cc2n1,–,–
≤ 0.1 µM,≥ 1 µM,–,CNc1ccc2ccc(OC[C@H]3O[C@@H](n4cc(C)c5c(N)ncnc54)[C@@H](F)[C@@H]3O)cc2n1,–,–
≤ 0.1 µM,≥ 1 µM,–,CCNc1ccc2ccc(CC[C@H]3O[C@@H](n4ccc5c(N)ncnc54)[C@H](O)[C@@H]3O)cc2n1,–,–
≤ 0.1 µM,≥ 1 µM,–,CNc1ccc2ccc(OC[C@H]3O[C@@H](n4cc(C5CCN(C)CC5)c5c(N)ncnc54)[C@@H](F)[C@@H]3O)cc2n1,–,–
≤ 0.1 µM,≥ 1 µM,–,CNc1ccc2ccc(OC[C@H]3O[C@@H](n4cc(C5CCN(C)C5)c5c(N)ncnc54)[C@@H](F)[C@@H]3O)cc2n1 (some centres undefined),–,–
≥ 1 µM,≥ 1 µM,–,CN(C)Cc1cccc(OC[C@H]2O[C@@H](n3cc(Br)c4c(N)ncnc43)[C@@H](F)[C@@H]2O)c1,–,–
≤ 0.1 µM,≥ 1 µM,1 µM,Nc1ncnc2c1ccn2[C@@H]1O[C@H](CCc2ccc3ccc(N4CCCC4)nc3c2)[C@@H](O)[C@H]1O,–,–
< 0.01 µM,–,1 µM,Nc1ncnc2c1ccn2[C@H]1C[C@H](O)[C@@H](COc2ccc3ccc(N4CCC4)nc3c2)O1,–,≥ 10 µM
≤ 1 µM,≥ 1 µM,–,CNc1ccc2ccc(OC[C@@H]3C[C@@H](O)[C@H](n4cc(C5CCCC5)c5c(N)ncnc54)O3)cc2n1,–,–
≤ 1 µM,≥ 1 µM,–,Nc1ncnc2c1ccn2[C@@H]1C[C@H](CCc2ccc3ccc(N4CCCC4)nc3c2)[C@@H](O)[C@H]1O,–,–
< 0.01 µM,–,–,CNc1ccc2ccc(OC[C@H]3O[C@@H](n4cc(C5CCCCC5)c5c(N)ncnc54)[C@H](O)[C@@H]3O)cc2n1,1 µM,–
≤ 0.1 µM,≥ 1 µM,–,CCc1cc(N)c2ccc(OC[C@H]3O[C@@H](n4cc(Br)c5c(N)ncnc54)[C@@H](F)[C@@H]3O)cc2n1,–,–
≤ 0.1 µM,≥ 1 µM,–,CNc1ccc2ccc(OC[C@H]3O[C@@H](n4cc(C5=CCN(C)CC5)c5c(N)ncnc54)[C@@H](F)[C@@H]3O)cc2n1,–,–
≤ 0.1 µM,≥ 1 µM,–,Nc1ncnc2c1c(Br)cn2[C@@H]1O[C@H](COc2ccc3ccc(N4CCCC4)nc3c2)[C@@H](O)[C@H]1O,–,–
< 0.01 µM,–,< 1 µM,CNc1ccc2ccc(CC[C@H]3C[C@@H](n4ccc5c(N)ncnc54)[C@H](O)[C@@H]3O)cc2n1,–,≥ 10 µM
≤ 0.1 µM,–,< 1 µM,Nc1ccc2ccc(CC[C@H]3C[C@@H](n4cc(C5CCCC5)c5c(N)ncnc54)[C@H](O)[C@@H]3O)cc2n1,–,1 µM
≤ 1 µM,≥ 1 µM,≥ 10 µM,Nc1ccnc2cc(OC[C@H]3O[C@@H](n4cc(Br)c5c(N)ncnc54)[C@@H](F)[C@@H]3O)ccc12,–,–
≥ 1 µM,≥ 1 µM,–,Cc1cn2cc(CC[C@H]3C[C@@H](n4ccc5c(N)ncnc54)[C@H](O)[C@@H]3O)ccc2n1,–,–
≤ 0.1 µM,≥ 1 µM,–,CNc1ccc2ccc(OC[C@H]3O[C@@H](n4cc(C(F)(F)F)c5c(N)ncnc54)[C@@H](F)[C@@H]3O)cc2n1,–,–
